# Assay results reported in PubChem BioAssay AID652106 (National Center for Advancing Translational Sciences (NCATS), 2013).
# Hit rate of the full screen: of about 370,000 compounds, about 500 (0.14%) were called active. Inconclusive means that the source gave no clear call. Such entries were picked first, then a sample of the others. The call rests on the fitted dose curve; in most records, active means well fitted activation curve with a large enough effect; inconclusive means small, poorly fitted or top-dose-only effect; inactive means no such curve, though single readings can be large or run the other way. No potency is given beside an inconclusive call; the fits are too rough.
# Test: qHTS of alpha-syn Inhibitors; further: nearly all actives have a fitted effect of over 65% in size; on growth rescue (activation): % of control where 0% means no effect
# Details: Yeast expressing alpha-synuclein, BacTiter-Glo, 24 h; Potency: growth rescue unless noted; growth rescue (activation): at 46.1 µM (top of the series) unless noted
# How it was run: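 Screening used galactose-induced yeast with toxic alpha-synuclein levels, exposed to compound for 24 hr at 30 deg C. Cell growth, read with BacTiter-Glo luminescence, gave the measured signal.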
# Potency means the concentration at half of the fitted maximal effect; tags describe the fitted curve by direction and shape.
SMILES,Potency,growth rescue (activation)
COc1c(Cl)cc(Cl)cc1C(=O)Nc1ccc(C(=O)O)cc1,"inconclusive [activator, full curve, poor fit]",–
CCOC(=O)c1cnc2ccc(OC)cc2c1NCc1ccccc1,–,inactive: -10%
COc1ccc2c(c1)c[n+](C)c1c3cc(OC)c(OC)cc3ccc21,"inconclusive [activator, single point]",–
Cc1ccc(OCC(=O)N/N=C\c2c(C)[nH]n(-c3ccccc3)c2=O)c([N+](=O)[O-])c1,active: 20 µM,–
Cc1cccc(C(=O)OCC(=O)N(CC(C)C)c2c(N)n(Cc3ccccc3)c(=O)[nH]c2=O)c1O,–,inactive: 1.31%
COc1cccc(C(=O)c2c(-c3ccccc3)ncc3cc(OC)c(OC)cc23)c1,"inconclusive [activator, single point]",–
Cc1ccc(C)n1-c1ccc(C(=O)N2CCOCC2)cc1,–,inactive: -0.743%
CC1(C)Oc2ccc3ccc(=O)oc3c2/C(=C/NNC(N)=S)C1=O,–,inactive: -4.5%
CCCNC(=O)c1cc(C2CCCN(C(=O)C3CCCCC3)C2)on1 (stereo not drawn),–,inactive: -7.31%
Clc1ccc(C(Cn2ccnc2)OCc2c(Cl)cccc2Cl)c(Cl)c1 (stereo not drawn),"inconclusive [activator, full curve]",–
CN(C)c1ccc(Cn2ccc3ccccc32)cc1,"inconclusive [activator, single point]",–
O=C(CN1C(=O)COc2ccccc21)N1CCc2ccccc21,–,inactive: -6.15%
COC(=O)Cn1ncc2c3ccccc3n(C)c2c1=O,–,inactive: -3.08%
O=C(CSc1cccc[n+]1[O-])Nc1cc(Cl)ccc1[N+](=O)[O-],"inconclusive [activator, single point]",–
CCCCCCSc1ccc([C@@H]2[C@@H]3C(=O)N(C)C(=O)[C@@H]3[C@]3(C(=O)OC)CCCCN23)cc1OC,"inconclusive [activator, single point]",–
Cc1nnc(NC(=O)c2ccc(S(=O)(=O)N3CCc4ccccc4C3)cc2)o1,"inconclusive [activator, single point]",–
Cn1cccc1CC(=O)NNC(=S)NC(=O)c1ccccc1Br,"inconclusive [activator, single point]",–
O=C(O/N=C(\c1ccccc1)c1ccccn1)c1ccc(Cl)c(Cl)c1,–,inactive: -8.43%
Cc1ccc(C2/C(=C(/O)c3ccc(Cl)cc3)C(=O)C(=O)N2CC2CCCO2)o1 (stereo not drawn),–,inactive: 8.69%
C=CCOC(=O)C1=C[C@H](c2csc3ccccc23)C[C@H](OCc2ccc(CO)cc2)O1,"inconclusive [activator, single point]",–
O=C(NCCS(=O)(=O)N1CCN(c2ccccc2)CC1)C12CC3CC(CC(C3)C1)C2,"inconclusive [activator, single point]",–
CCc1c(C)[nH]c2nc3ccccc3n2c1=O,–,inactive: -22.2%
Cc1nc(-c2ccccc2)sc1C(=O)/C=C/c1ccc(Cl)cc1,–,inactive: 6.62%
Cc1ccc2cc3c(NC(=O)c4ccco4)nn(C)c3nc2c1,–,inactive: 0.365%
O=C1CC(O)(C(F)(F)F)Oc2c1ccc1ccccc21 (stereo not drawn),active: 12.6 µM,–

SMILES,Potency,growth rescue (activation)
COc1ncnc2c1ncn2CCCN[C@H](C)c1cccc2ccccc12,"inconclusive [activator, single point]",–
COc1ccc(C(O)c2nc(-c3cc4ccccc4o3)cs2)cc1 (stereo not drawn),"inconclusive [activator, partial curve]",–
COc1ccccc1NC(=O)C(C)OC(=O)Cc1ccsc1 (stereo not drawn),–,inactive: 2.02%
Cc1c(C(=O)N(Cc2ccc(Cl)cc2)C2CCS(=O)(=O)C2)oc2ccccc12 (stereo not drawn),"inconclusive [activator, single point]",–
CCCSc1nc2c(c(=O)n1CC)SC(C)C2 (stereo not drawn),–,inactive: -9.94%
COc1cccc(-n2c(SCc3cccc(C)c3)nc3c([nH]c4ccccc43)c2=O)c1,"inconclusive [activator, single point]",–
Cc1cccc(/C=C/C(=O)c2ccc(NC3=NCCCS3)cc2)c1,"inconclusive [activator, single point]",–
CC(=O)c1ccc(NC(=O)c2ccc([N+](=O)[O-])o2)cc1,–,inactive: -52.8%
Cc1ccc(NC2=C(Cl)C(=O)OC2OC(=O)c2ccc(C)cc2)cc1 (stereo not drawn),–,inactive: -0.14%
CCCC(=O)Nc1sc(Cc2ccccc2)c(C)c1C(N)=O,–,inactive: -19.5%
CCOC(=O)C(C(=O)OCC)C1OC(=O)c2cc3c(cc21)C(=O)OC3C(C(=O)OCC)C(=O)OCC (stereo not drawn),"inconclusive [activator, single point]",–
COc1ccc(C(=O)OC(COc2ccccc2)Cn2ccnc2)cc1 (stereo not drawn),"inconclusive [activator, single point]",–
COc1cccc(C2=Cc3ccc(F)cc3C(CC(C)=O)N2c2ccc(C#CC3(O)CCCCC3)cc2)c1 (stereo not drawn),"inconclusive [activator, single point]",–
O=C(O)CC1(CC(=O)Nc2ccc(Oc3cccc(C(F)(F)F)c3)nc2)CCCC1,–,inactive: 4.16%
CCC(C)[C@H](NC(=O)[C@@H]1CSC2c3ccccc3C(=O)N21)C(=O)NCc1ccncc1 (stereo partly drawn),"inconclusive [activator, single point]",–
CCCS(=O)(=O)Nc1cccc(-c2cn3c(n2)SCC3)c1,"inconclusive [activator, single point]",–
Fc1cccc2sc(Nc3nc4cc5c(cc4s3)OCO5)nc12,–,inactive: -0.922%
Cc1ccc(CCNC(=O)CCn2nc(-c3ccc(Cl)cc3)ccc2=O)cc1,–,inactive: 6.45%
CC(C(=O)Nc1ccc(S(=O)(=O)N2CCCC2)cc1)N(C)CC(=O)Nc1cccc(F)c1 (stereo not drawn),"inconclusive [activator, single point]",–
C=CCN(CC=C)C(=S)NC(=O)c1ccc(C)c(Br)c1,active: 14.1 µM,–
COc1ccc(CNC(=O)c2ccc(-c3ccc(F)c(F)c3)c3ccoc23)cc1OC,"inconclusive [activator, single point]",–
Oc1ccc(Br)cc1CNc1cnc2ccccc2c1,"inconclusive [activator, partial curve]",–
C(=C\c1ccccc1)/CN1CCN(C(c2cc3ccccc3o2)c2nnnn2C2CCCC2)CC1 (stereo not drawn),"inconclusive [activator, single point]",–
CC1(C(=O)NS(=O)(=O)c2ccccc2)CCN1C(=O)C1(c2ccc(Cl)cc2)CC1 (stereo not drawn),–,inactive: -0.954%
Cc1nc(N2CCc3ccccc3C2)[nH]c(=O)c1Cc1ccccc1,–,inactive: 0.998%

SMILES,Potency,growth rescue (activation)
NC(c1csc(Nc2cnccn2)n1)C1CCCCC1 (stereo not drawn),"inconclusive [activator, single point]",–
O=C(CSc1nnnn1C1CCCCC1)Nc1nc2c(s1)CCCC2,"inconclusive [activator, single point]",–
O=C(Cc1ccc(Cl)cc1Cl)Nc1ccncc1Cl,"inconclusive [activator, single point]",–
CCOc1ccc(OCc2ccc(C(=O)N/N=C(\C)c3ccccn3)cc2)cc1,"inconclusive [activator, single point]",–
CSc1nc(N)c2ncn([C@@H]3O[C@H](COP(=O)(O)OP(=O)(O)OP(=O)(O)O)[C@@H](O)[C@H]3O)c2n1,"inconclusive [activator, partial curve]",–
COC(=O)[C@@]12CCCCN1[C@H](c1ccc(-c3ccc(F)cc3)c(OC)c1)[C@@H]1C(=O)N(C)C(=O)[C@@H]12,"inconclusive [activator, partial curve]",–
Cc1cc(-c2ccc(N3CCOCC3)cc2)nc2ccccc12,"inconclusive [activator, single point]",–
Cc1ccc(S(=O)(=O)/N=C(/c2ccccc2)N(C)c2ccc(O)cc2)cc1,"inconclusive [activator, single point]",–
CC(C)OC(=O)N(C)C[C@@H]1OCc2cnnn2CCCC(=O)N([C@H](C)CO)C[C@H]1C,–,inactive: -7.05%
CC(O)C1CCC2C3CC[C@H]4CC(O)CCC4(C)C3CC3(OCCO3)C12C (stereo partly drawn),"inconclusive [activator, single point]",–
Cc1ccc2c(c1)COc1c3ccc(C(=O)O)cc3nn1-2,–,inactive: 7.21%
Cc1ccc(CN(Cc2cc3cc(C)ccc3[nH]c2=O)C(=O)N2CCOCC2)cc1,–,inactive: 7.93%
S=C(Nc1cccc(Br)c1)c1ccccc1,–,inactive: -10.5%
O=C(NNC(=O)c1ccccn1)c1ccc(OC(F)F)cc1,"inconclusive [activator, single point]",–
Cc1ccccc1NC1C=CS(=O)(=O)C1 (stereo not drawn),"inconclusive [activator, single point]",–
NC(=O)COc1ccc(NC(=O)OCc2ccccc2)cc1,–,inactive: 5.27%
CSCCC(NC(=O)COc1ccccc1)C(=O)N(C)Cc1ccc(Cl)cc1Cl (stereo not drawn),"inconclusive [activator, single point]",–
CC(C)n1nnnc1C1c2ccccc2C(=O)N1Cc1ccc(F)cc1 (stereo not drawn),–,inactive: 7.37%
Cc1cc(SCC(=O)N2CCC(c3noc4ccc(F)cc34)CC2)nc2ccccc12,"inconclusive [activator, single point]",–
COc1ccc(CCNC(=O)C(=O)Nc2ccc(C)cc2)cc1OC,–,inconclusive: 65.9% [activator]
COc1cccc(C(O)c2nc(-c3cccc(C#N)c3)cs2)c1 (stereo not drawn),"inconclusive [activator, single point]",–
O=C(COC(=O)c1ccccc1OCCOc1ccccc1)Nc1cccc(Br)c1,–,inactive: 1.98%
C/C(=N\NC(=O)c1nnn(-c2nonc2N)c1CN(C)c1ccccc1)c1ccccn1,"inconclusive [activator, single point]",–
